Where a name gives a salt, the structure may show the parent alone. Some of the results follow.

The assay has as its system Schistosoma mansoni schistosomula. As to the kind of experiment: phenotypic hit in primary schistosomula screen (any phenotype vs DMSO control) (binary (1 = hit, 0 = no phenotype)); higher = active (phenotype induced). The following applies: 1 µM; time (d): 7.
On to `COc1c(CC=C(C)C)c2c(c3oc(=O)c(-c4ccc(OC(C)=O)cc4)c(OC(C)=O)c13)C=CC(C)(C)O2` [scandenin diacetate], for which the phenotypic hit is inactive: 0.
As to `COc1cc(C(=O)NCc2ccc(OCCN(C)C)cc2)cc(OC)c1OC` [trimethobenzamide hydrochloride], the phenotypic hit is inactive: 0.
Consider `O=C(O)C1CC([C@@H]2CCCCN2)CN2CCCCC12` (some centres undefined) [aphyllic acid], for which the phenotypic hit is inactive: 0.
In the case of `COc1ccc2c(c1)OC/C(=C/c1ccc(OC)c(OC)c1)C2=O` [sappanone a trimethyl ether] it was inactive: 0; in that of `CC1(C)C=Cc2c(cc3occ(-c4ccc5c(c4)OCO5)c(=O)c3c2O)O1` [robustone], inactive: 0; in that of `C[C@@H]1CC[C@H]2[C@](C)(CO)[C@@H](O)CC[C@]2(C)[C@@]12CC[C@@](CO)(CCO)O2` [lagochilin], inactive: 0.
With `O=c1cc(CO)occ1O` [kojic acid] the figure was inactive: 0; with `C1CCC(C(CC2CCCCN2)C2CCCCC2)CC1` (centres undefined) [perhexiline maleate], inactive: 0.
Turning to `CC(C)c1c(O)c(-c2cc3c(c(C(C)C)c2O)CCC2C(C)(C)CCC[C@]32C)cc2c1CCC1C(C)(C)CCC[C@]21C` (some centres undefined) [podototarin], the phenotypic hit is inactive: 0.
Consider `COC(=O)CCCOc1ccc(Cl)cc1Cl` [2,4-dichlorophenoxybutyric acid, methyl ester], for which the phenotypic hit was inactive: 0.
On to `CCc1nc(N)nc(N)c1-c1ccc(Cl)cc1` [pyrimethamine], for which the phenotypic hit is inactive: 0.
In the case of `CC(=O)[C@@]1(O)CC[C@H]2[C@@H]3C[C@H](C)C4=CC(=O)C=C[C@]4(C)[C@@]3(F)[C@@H](O)C[C@@]21C` [fluorometholone] it was inactive: 0; in that of `CC1(C)C(O)CC(=O)C2(C)C1CC(O)C1(C)C2CCC2(C)C(c3ccoc3)OC(=O)C3OC321` (centres undefined) [1-deacetoxy-1-oxo-3,7-dideacetylkhivorin], inactive: 0.
`CC1(C)C(=O)C=C[C@@]2(C)C1CC(=O)[C@@]1(C)C3=CC(=O)O[C@@H](c4ccoc4)[C@]3(C)CCC12` (some centres undefined) [7-deacetoxy-7-oxodeoxygedunin]: the phenotypic hit is inactive: 0.
In the case of `CC(C)C1=CC2=CC[C@@H]3[C@](C)(CCC[C@@]3(C)C(=O)O)[C@H]2CC1` [abietic acid], the phenotypic hit is inactive: 0.
`C[C@H]1C[C@H]2[C@@H]3CCC4=CC(=O)C=C[C@]4(C)[C@@]3(F)[C@@H](O)C[C@]2(C)[C@@]1(O)C(=O)CO` [betamethasone]: the phenotypic hit was inactive: 0.
Take `C[C@@H]1C[C@H]2[C@@H]3C[C@H](F)C4=CC(=O)C=C[C@]4(C)[C@@]3(F)[C@@H](O)C[C@]2(C)[C@H]1C(=O)COC(=O)C(C)(C)C` [diflucortolone pivalate]: the phenotypic hit is inactive: 0.
As for `Cc1ccc(Cl)c(Nc2ccccc2C(=O)O)c1Cl` [sodium meclofenamate], the phenotypic hit was inactive: 0.
In the case of `CC(C(=O)O)c1ccc(N2Cc3ccccc3C2=O)cc1` (centres undefined) [indoprofen], the phenotypic hit is inactive: 0.
As to `CO[C@@]12[C@H](COC(N)=O)C3=C(C(=O)C(C)=C(N)C3=O)N1C[C@@H]1N[C@@H]12` [mitomycin c], the phenotypic hit was inactive: 0.
With `Cc1cc(/C=C/c2ccc3cc(N(C)C)ccc3[n+]2C)c(C)n1-c1ccccc1` [pyrvinium pamoate] the figure was active: 1; with `CCn1nc(C(=O)O)c(=O)c2cc3c(cc21)OCO3` [cinoxacin], inactive: 0.
`CCOC(=O)CCCCCCCCCCCCC1C=CCC1` (centres undefined) [chaulmoogric acid, ethyl ester]: the phenotypic hit was inactive: 0.
With `C[C@@H]1O[C@@H](O[C@H]2[C@H](O[C@H]3CC[C@@]4(C)[C@@H](CC[C@]5(C)[C@@H]4CC=C4[C@@H]6CC(C)(C)CC[C@]6(C(=O)O[C@@H]6O[C@H](CO[C@@H]7O[C@H](CO)[C@@H](O[C@@H]8O[C@@H](C)[C@H](O)[C@@H](O)[C@H]8O)[C@H](O)[C@H]7O)[C@@H](O)[C@H](O)[C@H]6O)CC[C@]45C)[C@]3(C)CO)OC[C@H](O)[C@@H]2O)[C@H](O)[C@H](O)[C@H]1O` [hederacoside c] the figure was inactive: 0.
For the molecule `O=C(O[C@@H]1Cc2c(O)cc(O)cc2O[C@@H]1c1cc(O)c(=O)c2c(O)c(O)cc([C@H]3Oc4cc(O)cc(O)c4C[C@H]3O)c2c1)c1cc(O)c(O)c(O)c1` [theaflavin monogallates], the phenotypic hit was inactive: 0.
In the case of `C[C@@H]1C[C@H]2[C@@H]3CCC4=CC(=O)C=C[C@]4(C)[C@@]3(F)[C@@H](O)C[C@]2(C)[C@@]1(O)C(=O)CO` [dexamethasone] it was inactive: 0; in that of `O=C(O)CCCc1ccccc1` [phenylbutyric acid], inactive: 0; in that of `O=C(O)CCCc1ccccc1` [phenylbutyrate sodium], inactive: 0.
For `CC(C)NCC(O)COc1ccc(CC(N)=O)cc1` (racemic) [(±)-Atenolol], the phenotypic hit was inactive: 0.
`Cc1cnc(NC(=O)C2=C(O)c3ccccc3S(=O)(=O)N2C)s1` [meloxicam]: the phenotypic hit is inactive: 0.
Turning to `NC1=NCCN1CC(=O)O` [cyclocreatine], the phenotypic hit is inactive: 0.
Turning to `CC1(C)O[C@@H]2C[C@H]3[C@@H]4CCC5=CC(=O)C=C[C@]5(C)[C@@]4(F)[C@@H](O)C[C@]3(C)[C@]2(C(=O)CO)O1` [triamcinolone acetonide], the phenotypic hit was inactive: 0.
In the case of `C1CCN2C[C@@H]3C[C@@H](CN4CCCC[C@@H]34)[C@H]2C1` [sparteine sulfate] it was inactive: 0.
In the case of `CC(=O)OCC(OC(C)=O)C(OC(C)=O)C(OC(C)=O)C(OC(C)=O)C(COC(C)=O)OC(C)=O` (centres undefined) [persitol heptaacetate], the phenotypic hit was inactive: 0.
In the case of `C=CCCCCCCCCCCC/C=C/C(O)COC(C)=O` (centres undefined) [dehydroavocatin -1-acetate] it was inactive: 0; in that of `OC[C@H]1O[C@@H](n2cnc3c(NCc4ccco4)ncnc32)[C@H](O)[C@@H]1O` [kinetin riboside], inactive: 0.
Turning to `CC1CC(OC(=O)C(O)c2ccccc2)CC(C)(C)N1C` (centres undefined) [eucatropine hydrochloride], the phenotypic hit was inactive: 0.
With `Cc1nnc(NS(=O)(=O)c2ccc(N)cc2)s1` [sulfamethizole] the figure was inactive: 0; with `CC(=O)O[C@@H]1CC2C(C)(C)C(=O)C3OC3[C@]2(C)C2CC[C@@]3(C)[C@H](c4ccoc4)OC(=O)C4OC43[C@@]21C` (some centres undefined) [epoxygedunin], active: 1.
Regarding `Nc1ccc(S(=O)(=O)Nc2ccnn2-c2ccccc2)cc1` [Sulfaphenazole], the phenotypic hit is inactive: 0.
In the case of `CO/N=C(\C(=O)N[C@@H]1C(=O)N2C(C(=O)O)=C(COC(N)=O)CS[C@H]12)c1ccco1` [cefuroxime sodium] it was inactive: 0.
In the case of `CCC(=O)c1c(O)cc(O)cc1O` [flopropione] it was inactive: 0; in that of `Nc1nc2[nH]c(=O)cnc2c(=O)[nH]1` [Isoxanthopterin], inactive: 0.
With `CC1Cc2ccccc2N1NC(=O)c1ccc(Cl)c(S(N)(=O)=O)c1` (centres undefined) [indapamide] the figure was inactive: 0; with `C[C@H](CCC(=O)O)[C@H]1CC[C@H]2[C@@H]3CC[C@@H]4C[C@H](O)CC[C@]4(C)[C@H]3C[C@H](O)[C@]12C` [deoxycholic acid], inactive: 0; with `CC(C)C[C@@H]1NC(=O)[C@H](CCCN)NC(=O)[C@H](C(C)C)NC(=O)[C@H](Cc2ccc(O)cc2)N[C@@H](CCC(=O)O)C(=O)N[C@@H](CC(N)=O)C(=O)[C@@H](Cc2ccccc2)NC(=O)[C@H](Cc2ccccc2)NC(=O)[C@@H]2CCCN2C(=O)[C@@H](Cc2ccccc2)NC1=O` [tyrothricin], inactive: 0.
As to `CN(C)C(=O)Nc1ccc(Cl)c(Cl)c1` [diuron], the phenotypic hit was inactive: 0.
In the case of `CC1(C)C=CC(=O)[C@@]2(C)C1CC(=O)[C@]1(C)C2CC[C@@]2(C)[C@H](c3ccoc3)OC(=O)C3OC321` (some centres undefined) [deacetoxy-7-oxisogedunin] it was inactive: 0.
`CC(=O)OC1CCC2(C)C(CCC3(C)C2CC=C2C4C(C)C(C)CCC4(C(=O)O)CCC23C)C1(C)C` (centres undefined) [ursolic acid acetate]: the phenotypic hit was inactive: 0.
For `O=C(O)C1=CCCNC1` [Guvacine hydrochloride], the phenotypic hit was inactive: 0.
On to `Cc1cc(CC(=O)O)n(C)c1C(=O)c1ccc(Cl)cc1` [zomepirac sodium], for which the phenotypic hit is inactive: 0.
In the case of `COC(=O)CC[C@@H](C)[C@H]1CC[C@H]2[C@@H]3[C@H](O)C[C@@H]4C[C@H](O)CC[C@]4(C)[C@H]3C[C@H](O)[C@]12C` [cholic acid, methyl ester] it was inactive: 0.
Take `COc1c(O)cccc1O` [2-methoxyresorcinol]: the phenotypic hit was inactive: 0.
As for `CC12CCC(CC1)C(C)(C)O2` [cineole], the phenotypic hit is inactive: 0.
As to `CC1(C)CC[C@]2(C(=O)O)CC[C@]3(C)C(=CC[C@@H]4[C@@]5(C)CC[C@H](O)[C@@](C)(CO)[C@@H]5CC[C@]43C)[C@@H]2C1` [hederagenin], the phenotypic hit is inactive: 0.
Regarding `CC(C)/C(O)=C1/C(=O)O[C@@H](c2ccoc2)[C@]2(C)C(O)[C@@H](O)[C@@]34OC5(C)OC67CC(C)(C(O)[C@]6(O)[C@@H](O)[C@]3(O5)C12)[C@H](CC(=O)O)[C@]74C` (some centres undefined) [hydrolysis product of bussein], the phenotypic hit is inactive: 0.
As for `CC[C@H]1OC(=O)[C@H](C)[C@@H](O[C@H]2C[C@@](C)(OC)[C@@H](O)[C@H](C)O2)[C@H](C)[C@@H](O[C@@H]2O[C@H](C)C[C@H](N(C)C)[C@H]2O)[C@](C)(O)C[C@@H](C)[C@@H]2N[C@@H](COCCOC)O[C@H]([C@H]2C)[C@]1(C)O` [dirithromycin], the phenotypic hit was inactive: 0.
Take `O=c1cc[nH]c(=S)[nH]1` [2-thiouracil]: the phenotypic hit is inactive: 0.
Regarding `COc1ccc(-c2c(OC)c3c(OC)c4c(cc3oc2=O)OC(C)(C)C=C4)cc1` [robustic acid methyl ether], the phenotypic hit was inactive: 0.
